# The campaign covered roughly 310,000 compounds. About 14,000 (4.5%) showed an effect of 50% or more. The effect is printed as a negative number. Some of the results follow.
# Molecular target: human ether-à-go-go-related gene (hERG) potassium channel (human, UniProt Q12809)
# Assay: primary screen, population patch clamp on CHO cells stably expressing hERG
# 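Also: peak tail current of the secondary pulse compared with the same well before compound.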
# Chain of human ether-à-go-go-related gene (hERG) potassium channel (Q12809 whole entry, looked up): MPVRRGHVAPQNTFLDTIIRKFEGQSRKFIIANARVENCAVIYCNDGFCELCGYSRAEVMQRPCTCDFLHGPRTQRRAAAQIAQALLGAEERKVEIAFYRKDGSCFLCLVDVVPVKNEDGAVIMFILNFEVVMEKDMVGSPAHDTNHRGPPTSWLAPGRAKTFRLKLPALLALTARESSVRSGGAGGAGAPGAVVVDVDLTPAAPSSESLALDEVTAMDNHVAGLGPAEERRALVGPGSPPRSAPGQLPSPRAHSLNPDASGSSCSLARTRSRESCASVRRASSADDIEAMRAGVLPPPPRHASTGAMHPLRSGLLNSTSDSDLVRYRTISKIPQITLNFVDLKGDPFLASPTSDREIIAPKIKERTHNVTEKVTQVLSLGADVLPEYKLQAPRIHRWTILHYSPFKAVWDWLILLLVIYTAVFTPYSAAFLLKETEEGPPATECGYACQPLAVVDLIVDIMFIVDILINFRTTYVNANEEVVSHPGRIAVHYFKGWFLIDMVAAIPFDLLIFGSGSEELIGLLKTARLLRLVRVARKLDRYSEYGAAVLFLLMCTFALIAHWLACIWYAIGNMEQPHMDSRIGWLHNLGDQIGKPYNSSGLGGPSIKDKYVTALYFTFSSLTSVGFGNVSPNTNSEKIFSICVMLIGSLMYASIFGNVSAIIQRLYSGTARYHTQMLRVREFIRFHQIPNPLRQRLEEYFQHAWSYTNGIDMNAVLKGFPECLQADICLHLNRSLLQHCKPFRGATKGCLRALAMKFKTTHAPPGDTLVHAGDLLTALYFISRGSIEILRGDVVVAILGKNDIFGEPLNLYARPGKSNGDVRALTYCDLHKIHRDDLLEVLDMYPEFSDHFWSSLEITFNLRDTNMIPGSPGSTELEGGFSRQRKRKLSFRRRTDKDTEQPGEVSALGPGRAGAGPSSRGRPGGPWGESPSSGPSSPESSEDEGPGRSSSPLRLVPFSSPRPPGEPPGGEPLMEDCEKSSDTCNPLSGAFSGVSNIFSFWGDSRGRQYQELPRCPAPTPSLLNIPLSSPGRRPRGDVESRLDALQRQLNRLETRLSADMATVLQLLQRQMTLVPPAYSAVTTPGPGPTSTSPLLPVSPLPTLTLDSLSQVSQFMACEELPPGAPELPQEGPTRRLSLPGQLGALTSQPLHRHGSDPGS
row,SMILES,"hERG current change (%, negative = inhibition) at 10uM"
1,C=CCOc1ccc(CN(C)CC(=O)N(CC(C)C)c2c(N)n(CC(C)C)c(=O)[nH]c2=O)cc1,13%
2,O=C(Nc1ccccc1)N(Cc1ccccc1)CC(O)C(F)(F)F (centres unmarked),17.6%
3,Cc1noc(C)c1S(=O)(=O)N(CC(=O)NCCc1ccccc1)c1ccc(C(C)C)cc1,13.3%
4,CCOC(=O)C(C)N1N=C(/C=C/c2ccc(OC)cc2)CCC1=O (centres unmarked),1.23%
5,CCCCN(C(=O)C(C)Oc1cccc(Cl)c1)c1c(N)n(CCC)c(=O)[nH]c1=O (centres unmarked),-13%
6,O=C(CSc1nc2ccccc2c(=O)n1-c1cccc(C(F)(F)F)c1)NC1CC1,-18.5%
7,NC(=O)c1ccc(NC(=O)c2ccccc2S(=O)(=O)c2ccccc2[N+](=O)[O-])cc1,-1.49%
8,C/C(=N\NC(=O)CNC(=O)c1ccc2c(c1)OCCO2)c1ccco1,10.7%
9,CCN(C(=O)COC(=O)c1ccc(S(=O)(=O)N2CCCc3ccccc32)cc1)C1CCS(=O)(=O)C1 (centres unmarked),3.57%
10,COc1cc(/C=C2\SC(=Nc3cccnc3)NC2=O)cc(OC)c1OC,8.51%
11,COc1ccccc1CNC(=S)NC1CCCC1,7.26%
12,COc1cccc(NC(=O)CSc2nnc(-c3cccnc3)o2)c1,1.95%
13,Cc1ccc(C)c(-c2nnc(NC(=O)CCS(=O)(=O)c3ccc(F)cc3)o2)c1,-12.4%
14,CCCC1(C(=O)O)NC(c2ccccc2O)C2C(=O)N(c3cccc(Cl)c3)C(=O)C21 (centres unmarked),6.52%
15,COc1cccc(C2c3c(oc4ccc(F)cc4c3=O)C(=O)N2CCN2CCOCC2)c1OC (centres unmarked),4.45%
16,Cc1ccsc1C(=O)N[C@@H](C)c1nnc2ccccn12,4.09%
17,Cc1ccccc1/C=N/NC(=O)Cn1nnc(N)n1,-7.01%
18,CCS(=O)(=O)c1nnnn1-c1ccccc1S(C)(=O)=O,12.3%
19,COc1cccc(C2CC(=O)Nc3cc4c(cc32)CCC4)c1 (centres unmarked),-6.57%
20,CN(C)CCOc1ccccc1-c1ccccc1.O=C(O)C(=O)O,-4.52%
21,Cc1cccc(C(=O)NC(=S)NCc2ccccc2)c1,8.18%
22,Cc1ccc(-c2noc(CSc3nnc(Cc4ccccc4)n3-c3ccc(Cl)cc3)n2)cc1,27.2%

row,SMILES,"hERG current change (%, negative = inhibition) at 10uM"
1,CN1CCN(C(=O)c2ccc3nc(-c4ccccc4)c(-c4ccccc4)nc3c2)CC1,6.03%
2,Cc1ccc(C)c(NC(=S)N2CCC(c3nc4ccccc4s3)CC2)c1,5.95%
3,CCc1ccc(OCC(=O)NC(NC(=S)Nc2ccc(C)cc2C)C(Cl)(Cl)Cl)cc1 (centres unmarked),5.54%
4,CCOC(=O)Cc1csc(NC(=O)CC(C)(C)CC(=O)O)n1,3.83%
5,Cc1ccc(-c2n[nH]c(=S)n2/N=C/c2c(C)nn(-c3ccccc3)c2C)cc1,-34.5%
6,CCc1nc(N)c(C#N)c(-c2ccccc2OC)c1C,-14.1%
7,O=C(O)C(O)(c1ccccc1)C1CCCCC1 (centres unmarked),-14.1%
8,CCOC(=O)N1N=C(C)CC1(O)c1ccc(Cl)cc1 (centres unmarked),11.9%
9,CC(C)C(=O)Nc1nnc(CSCc2ccccc2F)s1,-3.32%
10,COc1ccc(CCNC(=O)C(C(=O)c2ccc(F)cc2)n2ccccc2=O)cc1OC (centres unmarked),-0.85%
11,Cc1ccc(NC(=O)Cn2nnc(C(=O)NCc3ccc(Cl)cc3)c2N)cc1F,13.7%
12,O=C(O)c1cc([N+](=O)[O-])c(N2CCCC2)c([N+](=O)[O-])c1,2.9%
13,CC1(c2ccc(OCC#N)cc2)C=C(c2ccc(OCC#N)cc2)n2nc(C(F)(F)F)nc2N1 (centres unmarked),-9.2%
14,Cc1ccc(-c2noc(CNC(=O)COc3ccccc3C)n2)cc1,4.55%
15,Cc1ccc(Cn2c(=N)c(S(=O)(=O)c3ccc(Br)cc3)cc3c(=O)n4ccccc4nc32)cc1,-6.27%
16,CN(C)CC(=O)N1CCc2ccccc2C1.O=C(O)C(=O)O,13.2%
17,CC(C)(C)NC(=O)CCn1nc(-c2ccc(Cl)cc2)c2ccccc2c1=O,-32.3%
18,Fc1cccc(CN2CCN3CCCC3C2C2CCCCC2)c1 (centres unmarked),-8.93%
19,COc1cc(C(=O)NCCc2ccccc2)ccc1OCC(=O)N1CCOCC1,3.77%
20,CCOC(=O)c1cnc(Nc2nc3ccccc3o2)nc1CSC(=S)N1CCCCC1,10%
21,N#CCCN(C(=O)CSc1nc2nc(-c3cccs3)cc(C(F)(F)F)c2c(=O)[nH]1)c1ccccc1,19.9%
22,C=C1C[C@@]23CCC4[C@@](C)(CCC[C@@]4(C)C(=O)OC)C2CC[C@]1(OC(C)=O)C3 (some centres unmarked),10.8%

row,SMILES,"hERG current change (%, negative = inhibition) at 10uM"
1,CN1C(=O)C(CC(=O)Nc2ccc(F)cc2)N(NC(=O)c2cccc(F)c2)C1=S (centres unmarked),-3.79%
2,O=C(N/N=C/c1ccc[nH]1)c1ccc2c(c1)OCO2,13.9%
3,Cc1cc(-c2nnnn2-c2ccc(C(F)(F)F)cc2)no1,-4.29%
4,Cc1nn(-c2ccccc2)c(Cl)c1/C=N/NC(=O)CCNc1n[nH]c(=O)[nH]c1=O,13.1%
5,CCOC(=O)C1CCN(C(=O)C2CCN(S(=O)(=O)N3CCCC3)CC2)CC1,-64.9%
6,Cc1ccc(/C=C2\NC(=S)NC2=O)cc1[N+](=O)[O-],22.7%
7,COc1ccc(NC(=O)CCC(=O)OCc2ccc([N+](=O)[O-])cc2)cc1,-4.12%
8,CC(=O)N1N=C(c2ccco2)CC1c1cccs1 (centres unmarked),16%
9,COc1c2c(nc3occc13)C(CC=C(C)C)(OC)C(O)CC2 (centres unmarked),5.5%
10,COc1ccc(CCC(=O)NCc2cn3ccc(C)cc3n2)cc1,-52%
11,O=C(NCC(O)c1ccccc1)Nc1cccs1 (centres unmarked),12.6%
12,Cc1ccc(-c2nnc(SCC#CCOC(=O)c3cccs3)o2)cc1,14.3%
13,COc1ccc(S(=O)(=O)NCc2ccccn2)cc1NC(=O)c1ccc(Cl)cc1,-68.8%
14,O=C(COc1ncnc2ccc(Br)cc12)NCc1ccc2c(c1)OCO2,-2.32%
15,FC(F)(F)c1ccnc(NCc2ccco2)n1,8.44%
16,COc1cc(NS(=O)(=O)c2c(C(=O)N3CCOCC3)c(C)n(C)c2C)cc(OC)c1OC,12.4%
17,CCOc1ccc(-n2c(SCc3ccc([N+](=O)[O-])cc3)nnc2-c2ccccc2)cc1,4.93%
18,Cc1ccc2cc(CCNC(=O)c3cc4ccccc4o3)c(=O)[nH]c2c1C,8.51%
19,Cc1ccccc1N(C(=O)Cc1cccs1)C(C(=O)NC1CCCCC1)c1cn(C)nc1C (centres unmarked),-9.52%
20,O=C(c1cc(F)ccc1F)C1CCCN(Cc2ccc3nonc3c2)C1 (centres unmarked),-12%
21,CNS(=O)(=O)c1cn(CC(=O)NCc2ccc(N(C)C)cc2)cc1S(=O)(=O)NC,2.01%
22,CCCN(CCC)C(=O)Cn1ccc(=N)c2ccccc21.Cl,7.03%

row,SMILES,"hERG current change (%, negative = inhibition) at 10uM"
1,Cc1cccc(NC(=O)C2CCCN(C(=O)NC3CCCCC3)C2)c1C (centres unmarked),-3.65%
2,CC(C)(C)c1ccc(OCC(=O)NNC(=O)Cc2cccs2)cc1,-28.8%
3,CCc1c(C)sc(NC(=O)Cc2ccccc2C)c1C(=O)N1CCOCC1,16.1%
4,O=C(CNS(=O)(=O)c1cccs1)NCCc1ccc(Cl)cc1,-9.57%
5,COC(=O)CN1C(=O)C(O)(CC(=O)c2ccc(C)o2)c2ccccc21 (centres unmarked),13.6%
6,Cc1nnc(SCC(=O)NNC(=O)c2ccccc2)n1-c1ccccc1,0.302%
7,CC(Oc1cccc(Cl)c1)C(=O)Nc1ccccc1N1CCCCC1 (centres unmarked),0.371%
8,COC(=O)c1ccc(COC(=O)c2ccccc2OC)cc1,0.631%
9,Cc1ccc(NC(=S)N(CCCN2CCCC2)Cc2cccn2Cc2ccc(Cl)cc2)cc1Cl,6.99%
10,COc1ccc(C(=O)C2CN(C)CC2c2ccc(Cl)cc2)cc1 (centres unmarked),-73.1%
11,COc1ccccc1NC(=O)C1=C(C)Nc2ncnn2C1c1ccc(C)o1 (centres unmarked),7.95%
12,Fc1cccc(Cl)c1CSc1nnc(COc2cccc3cccnc23)o1,-10.4%
13,CCOC(=O)C1C(c2ccccc2)NC(=S)NC1(C)O (centres unmarked),24.8%
14,CCC(C)(C)c1ccc(OCCCC[n+]2ccc(C)cc2)c(C(C)(C)CC)c1.[Br-],-75.7%
15,CCN(CC)S(=O)(=O)c1ccc2[nH]c(=O)c3ccccc3c2c1,-1.85%
16,COc1cccc(N2CC(C(=O)Nc3nnc(SCC(=O)Nc4cc(C)on4)s3)CC2=O)c1 (centres unmarked),11.3%
17,O=C(NC1CC1)c1ccc(-n2cccc2)cc1,21.1%
18,COc1cc(/C=N/NC(=O)C(Cc2c[nH]c3ccccc23)NC(=O)OCC(C)C)cc([N+](=O)[O-])c1O (centres unmarked),12.8%
19,CCC(=O)NCCc1nc2ccccc2[nH]1,1.08%
20,COc1ccc(C(=O)N2CCN(c3ccccc3OC)CC2)cc1,21%
